Experimental data published in the supplement of paper PMC12217912.
The list shows a part of the results. The full chains were built here from the parent and the listed change. Inactive controls read about 0.05.

B1: TEV protease; numbered along this chain (parent)
chain: MGESLFKGPRDYNPISSSICHLTNESDGHTTSLYGIGFGPFIITNKHLFRRNNGTLVVQSLHGVFKVKDTTTLQQHLVDGRDMIIIRMPKDFPPFPQKLKFREPQREERICLVTTNFQTKSMSSMVSDTSCTFPSGDGIFWKHWIQTKDGQCGSPLVSTRDGFIVGIHSASNFTNTNNYFTSVPKNFMELLTNQEAQQWVSGWRLNADSVLWGGHKVFMVKPEEPFQPVKEATQL

Variants of: B1
Assay: raw area under fraction-flipped curve 0-4 h after induction (AUC4h, not background-subtracted), DNA-recorder readout of cleavage of the substrate (dimensionless); higher = more cleavage of the substrate by the protease variant
Conditions: temperature: 34 °C; time window: 0-4 h after rhamnose induction
Experimental: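 In vivo DNA recorder in E. coli TOP10(DE3) ΔrhaA at 34 °C. Each TEVp single-site mutant (parent TEVp 0) is paired with a single-site variant of the 7-mer TEVs (canonical ENLYFQ|S). The substrate sits between flexible linkers in a Bxb1-sfGFP-TEVs-SsrA fusion, so cleavage stabilises Bxb1 and speeds flipping of a recombination array, read by NGS. The value is the raw area under the fraction-flipped curve over 0-4 h after rhamnose induction (AUC4h), with ≥20 reads per time point. It is not background-subtracted; inactive controls average about 0.047.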
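Further: Bxb1 expression induced with 0.2% (w/v) L-rhamnose at OD600 near 0.5, cultures sampled hourly, flipped fraction per protease–substrate barcode pair counted by paired-end Illumina sequencing.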

| Variant | area with substrate ENAYFQS | area with substrate ENCYFQS | area with substrate ENDYFQS | area with substrate ENEYFQS | area with substrate ENFYFQS | area with substrate ENGYFQS | area with substrate ENHYFQS | area with substrate ENIYFQS | area with substrate ENMYFQS | area with substrate ENNYFQS | area with substrate ENPYFQS | area with substrate ENQYFQS | area with substrate ENRYFQS | area with substrate ENSYFQS | area with substrate ENTYFQS | area with substrate ENVYFQS | area with substrate ENYYFQS | area with substrate ENWYFQS | area with substrate ENKYFQS |
| --- | --- | --- | --- | --- | --- | --- | --- | --- | --- | --- | --- | --- | --- | --- | --- | --- | --- | --- | --- |
| H143A | 0.058 | 0.0579 | 0.0646 | 0.0632 | 0.0618 | 0.0717 | 0.0574 | 0.0798 | 0.0634 | 0.0771 | 0.0491 | 0.0627 | 0.0636 | 0.0623 | 0.0647 | 0.0674 | 0.0616 | – | – |
| H143P | 0.0485 | 0.059 | 0.0718 | 0.0524 | 0.0753 | 0.0571 | 0.0414 | – | 0.0617 | – | – | 0.0567 | 0.0522 | 0.0525 | 0.0629 | 0.047 | 0.0607 | 0.0508 | – |
| H143R | 0.0437 | 0.0772 | 0.0653 | 0.0641 | 0.0616 | – | 0.0677 | – | 0.0567 | 0.0553 | – | 0.0674 | 0.0528 | 0.0577 | 0.0621 | 0.0607 | 0.0594 | 0.0079 | 0.0617 |
| D161C | 0.0567 | 0.039 | 0.0508 | 0.0578 | 0.0497 | 0.0352 | 0.056 | 0.0698 | 0.0586 | 0.0617 | 0.0496 | 0.0604 | 0.0517 | 0.0543 | 0.0525 | 0.0566 | 0.057 | – | 0.0584 |
| D161F | 0.055 | 0.0546 | 0.0615 | 0.0588 | 0.0597 | – | 0.0552 | – | – | – | 0.0425 | 0.0544 | 0.0488 | 0.0608 | 0.0469 | – | 0.0486 | – | 0.0446 |
| D161K | 0.0541 | 0.0525 | 0.0576 | 0.0547 | 0.0455 | 0.0711 | 0.0558 | 0.0632 | 0.0535 | 0.0557 | – | 0.067 | 0.0631 | 0.0623 | 0.0905 | – | 0.0484 | 0.0471 | 0.0354 |
| P155L | 0.0547 | 0.0505 | 0.0393 | 0.0515 | 0.0475 | 0.0523 | 0.0542 | 0.0519 | 0.0514 | 0.055 | 0.0479 | 0.0567 | 0.0491 | 0.0485 | – | 0.0847 | – | – | 0.0621 |
| P155A | 0.0599 | 0.0621 | 0.06 | 0.0489 | 0.0687 | 0.0763 | 0.0555 | 0.153 | – | 0.0646 | 0.0593 | 0.0555 | – | 0.0629 | 0.0636 | 0.0884 | – | 0.0555 | 0.0305 |
| P155S | 0.053 | 0.0615 | 0.0527 | 0.0505 | 0.0629 | 0.049 | 0.0552 | 0.0494 | 0.048 | 0.0627 | 0.0588 | 0.0503 | 0.0584 | 0.0559 | 0.0532 | 0.0478 | 0.0441 | 0.0569 | 0.0482 |
| P155W | 0.0641 | 0.0514 | 0.0598 | 0.0709 | 0.0671 | 0.0564 | – | 0.0634 | 0.0685 | 0.0364 | – | 0.0568 | – | 0.0609 | 0.0346 | 0.0422 | 0.0589 | 0.0515 | 0.0959 |
| K142T | 0.0463 | 0.065 | 0.0561 | – | 0.0596 | 0.0681 | 0.0606 | 0.105 | 0.0741 | 0.0663 | 0.0422 | 0.0659 | 0.0671 | 0.0865 | 0.0604 | 0.0671 | 0.0815 | – | 0.0578 |
| K142S | 0.065 | 0.0777 | 0.0632 | 0.0654 | – | 0.106 | – | 0.11 | 0.08 | 0.0635 | 0.0626 | 0.0671 | 0.0931 | 0.06 | 0.0612 | 0.0832 | 0.0587 | – | 0.0652 |
| K142E | 0.0628 | 0.0678 | 0.059 | 0.0602 | 0.0603 | 0.0682 | 0.0448 | – | 0.0544 | 0.0687 | – | 0.0615 | 0.0621 | 0.0613 | – | 0.0678 | 0.0424 | 0.0082 | 0.0625 |
| K142F | 0.0489 | – | 0.0582 | 0.0628 | – | 0.0598 | 0.0567 | 0.0974 | 0.0806 | 0.0444 | – | 0.0586 | 0.0514 | – | 0.0577 | 0.0852 | 0.0753 | – | – |
| F140C | 0.0613 | – | 0.0582 | 0.0693 | 0.0621 | 0.0058 | 0.0568 | 0.0934 | 0.0623 | 0.064 | 0.0757 | 0.0779 | 0.0593 | 0.0646 | 0.0308 | 0.0413 | 0.0555 | 0.064 | – |
| S123K | 0.0526 | 0.0697 | 0.0625 | 0.0624 | – | 0.0523 | 0.0547 | – | 0.0684 | 0.064 | 0.0798 | 0.0594 | 0.0762 | 0.0652 | 0.0563 | 0.109 | 0.0723 | 0.06 | 0.0566 |
| S123M | 0.0643 | – | 0.0525 | 0.0626 | 0.0568 | 0.0648 | 0.0577 | – | – | 0.0413 | 0.0488 | – | 0.0614 | 0.0703 | 0.0509 | 0.0673 | – | 0.0241 | – |
| S123A | 0.066 | – | – | 0.0654 | 0.057 | 0.0446 | – | – | 0.0773 | 0.0635 | – | 0.0548 | – | 0.0628 | 0.0629 | – | – | – | 0.0546 |
| V126M | 0.0647 | 0.0644 | 0.0556 | 0.0631 | 0.0554 | 0.0763 | 0.0559 | – | 0.0781 | 0.0602 | 0.0619 | 0.0422 | – | 0.0529 | 0.0613 | 0.0635 | – | 0.06 | – |
| V126W | 0.0591 | 0.0726 | 0.0433 | 0.0607 | 0.0708 | 0.0514 | 0.0665 | – | 0.0815 | 0.0594 | 0.0367 | 0.0606 | 0.0577 | 0.065 | 0.0657 | 0.0792 | – | 0.0574 | 0.0589 |
| V126N | 0.0618 | 0.0624 | 0.0685 | 0.0701 | – | 0.0604 | 0.0676 | 0.117 | – | 0.0454 | 0.0722 | 0.065 | 0.0401 | 0.0646 | 0.0508 | 0.0873 | 0.0651 | 0.0725 | 0.0563 |
| S127D | 0.0552 | 0.0654 | – | 0.0567 | – | 0.0662 | – | 0.113 | 0.0658 | 0.0691 | 0.0549 | – | – | 0.0621 | – | 0.0702 | – | – | 0.0546 |
| S124W | 0.0646 | 0.057 | 0.0319 | 0.0759 | 0.0589 | 0.0634 | 0.0359 | 0.117 | – | 0.0615 | 0.0583 | – | – | 0.0718 | – | 0.0796 | – | – | 0.0743 |
